{
  "source": "ChEMBL document CHEMBL4888484",
  "about": "“Replenishing the malaria drug discovery pipeline: Screening and hit evaluation of the MMV Hit Generation Library 1 (HGL1) against asexual blood stage Plasmodium falciparum ,using a nano luciferase reporter read-out” (2022)",
  "note": "Hit rate of the full screen: of about 150,000 compounds, about 540 (0.36%) showed an effect of 50% or more. The list shows a part of the results.",
  "data": [
    {"test_system": "Plasmodium falciparum", "experiment": "Primary screen in NF54 nanoGlo assay, in single point, at 2uM, 72h; a lower Z score goes with more inhibition", "format": "functional, Erythrocyte", "conditions": "timepoint 72 hour", "units": {"% Inhibition": "%"}, "values": [
      {"smiles": "CCC(C)(C)NC(=O)c1ccc(N(C)C)cc1", "% Inhibition": -1, "Z score": 0.09},
      {"smiles": "CNc1snc(C)c1C(=O)N1CC[C@H](Oc2ccc(Cl)c(Cl)c2)C1", "% Inhibition": -1, "Z score": 0.14},
      {"smiles": "Cc1n[nH]c([C@@H]2CN(Cc3ccnn3C3CCC3)CCO2)n1", "% Inhibition": 2, "Z score": -0.43},
      {"smiles": "CC(c1ccc(Cl)cc1)C(C)N(C)C(=O)c1ccnc(C(=O)O)c1", "note": "(centres undefined)", "% Inhibition": -9, "Z score": 1.98},
      {"smiles": "CCc1nc(CN2C(=O)COc3ccc(S(=O)(=O)N4CCc5ccccc5C4)cc32)no1", "% Inhibition": -4, "Z score": 0.45},
      {"smiles": "Cn1cc([C@@H](O)C(=O)OCCOc2ccccc2F)cn1", "% Inhibition": -1, "Z score": 0.08},
      {"smiles": "CNC(=O)CNC(=O)c1ccc(F)cc1F", "% Inhibition": -1, "Z score": 0.2},
      {"smiles": "CC(C)c1cc(C(=O)N2CCCCO2)nc(N)n1", "% Inhibition": -10, "Z score": 1.41},
      {"smiles": "COc1cccc(-c2nc(CN(CCO)[C@@]3(C)CCS(=O)(=O)C3)c(C)o2)c1OC", "% Inhibition": -6, "Z score": 0.79},
      {"smiles": "CC[C@H](C)N(Cc1c(-c2ccccc2F)noc1N1CCOCC1)C(=O)c1ccccc1F", "% Inhibition": 9, "Z score": -1.47},
      {"smiles": "O=C(Nc1nncs1)[C@@H]1CCCN1c1ncnc2sccc12", "% Inhibition": -6, "Z score": 0.72},
      {"smiles": "CCOC1CC(N(C)c2nccc(-n3cccn3)n2)C1(CC)CC", "note": "(centres undefined)", "% Inhibition": -4, "Z score": 0.64},
      {"smiles": "COc1ccc(CC(=O)N2CCC[C@H]2C(=O)N[C@@H]2CCCC[C@H]2N(Cc2cccc(C)c2)C(=O)c2ccc(OC)cc2)cc1", "% Inhibition": -4, "Z score": 0.47},
      {"smiles": "Cc1ccc(NC(=O)c2cnc3ccccn23)cc1N1C(=O)CNC1=O", "% Inhibition": -15, "Z score": 2.4},
      {"smiles": "O=C([C@H]1CC(=O)N(c2cccc(-c3noc(C4CCC4)n3)c2)C1)N1CCN(c2ccccc2F)CC1", "% Inhibition": -11, "Z score": 1.44},
      {"smiles": "Cc1ccc(C)c2c(N)c3c(nc12)N(C)CCCC3", "% Inhibition": -2, "Z score": 0.26},
      {"smiles": "COC(=O)CC(NC(=O)C1CC(C)CCC1C(C)C)C(=O)OC", "note": "(centres undefined)", "% Inhibition": 6, "Z score": -0.74},
      {"smiles": "CCOCCN(C)C(=O)Nc1sc(-c2ccccc2)nc1C", "% Inhibition": 4, "Z score": -0.79},
      {"smiles": "CCc1n[nH]c(C(=O)NCc2nc(C(F)(F)F)n[nH]2)c1C", "% Inhibition": -2, "Z score": 0.35},
      {"smiles": "C1CCC(N2CCC(c3nc([C@H]4CCOC4)no3)CC2)C1", "% Inhibition": 8, "Z score": -0.73},
      {"smiles": "Cc1ccc(C[C@H](NC(=O)NCC2(O)CCC2)c2ccccn2)cc1", "% Inhibition": -9, "Z score": 1.35},
      {"smiles": "O=C([C@H]1CC(=O)N(c2ccccc2)C1)N1CCN(c2ccccn2)CC1", "% Inhibition": -14, "Z score": 1.33},
      {"smiles": "CC(C)n1ncc2cc(NS(=O)(=O)c3ccc(F)c(Cl)c3)cnc21", "% Inhibition": 3, "Z score": -0.29},
      {"smiles": "Cc1c(NC(=O)Nc2cccc(Cl)c2OC(C)C)cnn1CCO", "% Inhibition": -12, "Z score": 1.39},
      {"smiles": "C[C@H]1CN(C(=O)Nc2cccc(C(=O)NC3CC3)c2)CCCO1", "% Inhibition": -2, "Z score": 0.32},
      {"smiles": "CN1CC[C@H](Oc2nccc(C(F)(F)F)n2)C1", "% Inhibition": -20, "Z score": 2.87},
      {"smiles": "Cc1nnc(CNC(=O)c2ccc(NC(=O)C3CCC3)cc2)o1", "% Inhibition": 2, "Z score": -0.21},
      {"smiles": "Cc1ccc(S(=O)(=O)N2CCC(CNC(=O)c3cnccn3)CC2)c(F)c1", "% Inhibition": -3, "Z score": 0.49},
      {"smiles": "FC(F)(F)c1nnc(N2CCC(n3cccn3)CC2)s1", "% Inhibition": -13, "Z score": 2.01},
      {"smiles": "Cc1ccc(N2CCCC2)c(C(=O)N2CCC[C@H](S(C)(=O)=O)C2)c1", "% Inhibition": 2, "Z score": -0.24},
      {"smiles": "Cn1c(=O)n(CCOc2ccc(Cl)cc2Cl)c2ccccc21", "% Inhibition": 7, "Z score": -0.9},
      {"smiles": "O=C(CCN1CCCCO1)N1CCO[C@@H](CCCc2ccccc2)C1", "% Inhibition": 5, "Z score": -1.02},
      {"smiles": "FC(F)(F)c1ccnc(N2CCN(C3CCN(C[C@H]4COc5ccccc5O4)CC3)CC2)c1", "% Inhibition": -7, "Z score": 0.9},
      {"smiles": "CCCCOc1ccccc1CN1CCN2C(=O)NC[C@H]2C1", "% Inhibition": -10, "Z score": 1.01},
      {"smiles": "O=C(Nc1ccccn1)c1n[nH]c2c1COc1ccccc1-2", "% Inhibition": -16, "Z score": 2.1},
      {"smiles": "Cc1n[nH]c(C)c1CCCN[C@@H](C)CC(F)(F)F", "% Inhibition": 4, "Z score": -0.68},
      {"smiles": "CC1CC1NC(=O)[C@@H]1C[C@@H](O)CN1C(=O)OCc1ccccc1", "note": "(some centres undefined)", "% Inhibition": -4, "Z score": 0.64},
      {"smiles": "Cc1cc(C)c([C@H]2NC(=O)N(Cc3nonc3C)C2=O)c(C)c1", "% Inhibition": -4, "Z score": 0.66},
      {"smiles": "CC(C)C(NC(=O)CN1CCCC1C(=O)O)c1ccc(F)cc1", "note": "(centres undefined)", "% Inhibition": -12, "Z score": 1.59},
      {"smiles": "Cc1ccc(C#N)c(NCC2CCC3(CCOCC3)C2O)n1", "note": "(centres undefined)", "% Inhibition": -17, "Z score": 1.98},
      {"smiles": "O=C(c1ccn2nnnc2c1)N1CC(C(F)(F)F)C1", "% Inhibition": -13, "Z score": 1.8},
      {"smiles": "COc1ccccc1N1CCN(C(=O)C2CCN(S(=O)(=O)Cc3ccccc3Cl)CC2)CC1", "% Inhibition": -14, "Z score": 2.65}
    ]}
  ]
}
